Source: the supplement of paper PMC9446081
The campaign covered roughly 39,000 compounds. About 220 (0.56%) showed activity. This is one part of the list.

tested on: Escherichia coli K-12 BW25113; test: relative growth (OD600 normalised to plate interquartile mean) (fraction); higher = less growth inhibition, active = 0.2 or less; settings: 50 µM; LB; incubation time: overnight (16-24 h)
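Further: static incubation at 37 °C against the wild-type strain, values averaged over two biological replicates.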

Structure (SMILES)	relative growth
CO[C@H]1CN(C)C(=O)c2ccc(NC(=O)Nc3ccc(Cl)cc3)cc2OC[C@H](C)N(C(=O)Nc2c(C)noc2C)C[C@H]1C	inactive: 1
C[C@@H]1CN([C@H](C)CO)C(=O)CCCn2cc(nn2)CO[C@@H]1CN(C)C(=O)Nc1ccc(C(F)(F)F)cc1	inactive: 0.969
CC(C)(C#N)c1cc(Cn2cncn2)cc(C(C)(C)C#N)c1	inactive: 1.01
C[C@@H]1CN([C@H](C)CO)C(=O)c2cc(NC(=O)Cn3cnnn3)ccc2O[C@H]1CN(C)C(=O)Nc1ccc2c(c1)OCO2	inactive: 0.999
COc1ccc(CN(C)C[C@@H]2OCCCC[C@@H](C)Oc3ccc(NS(=O)(=O)c4ccc(C)cc4)cc3C(=O)N([C@H](C)CO)C[C@H]2C)cc1	inactive: 0.982
O=C(NO)c1ccc(C(=O)N/N=C/c2cccc(B(O)O)c2)cc1	inactive: 0.98
COc1ccc(S(=O)(=O)Nc2ccc3c(c2)C(=O)N([C@@H](C)CO)C[C@H](C)[C@@H](CN(C)C(=O)CCC(F)(F)F)OCCCC[C@H](C)O3)cc1	inactive: 0.987
COc1ccc(CN(C)C[C@@H]2OCCCC[C@@H](C)Oc3ccc(NS(=O)(=O)c4cccs4)cc3C(=O)N([C@@H](C)CO)C[C@H]2C)cc1	inactive: 1.01
Cc1noc(C)c1S(=O)(=O)N(C)C[C@@H]1OCCCC[C@@H](C)Oc2ccc(NC(=O)Nc3ccc(C(F)(F)F)cc3)cc2C(=O)N([C@@H](C)CO)C[C@@H]1C	inactive: 1
Cc1noc(C)c1S(=O)(=O)Nc1ccc2c(c1)C(=O)N([C@@H](C)CO)C[C@@H](C)[C@H](CN(C)S(C)(=O)=O)O2	inactive: 0.976
Cn1cnc(S(=O)(=O)N2C[C@@H](O)COC[C@@H]3O[C@H](CC(=O)NCc4cccc(F)c4)CC[C@H]32)c1	inactive: 1
CCS(=O)(=O)NCC[C@H]1CC[C@H](NC(=O)C2CC2)[C@@H](CO)O1	inactive: 0.983
Oc1c(I)cc(Cl)c2cccnc12	inactive: 0.463
C[C@@H]1CN([C@H](C)CO)C(=O)c2ccccc2-c2ccccc2CO[C@@H]1CN(C)C(=O)Nc1cccc(F)c1	inactive: 1.01
CCCCCCCCCCCCCCCC(=O)CCO	inactive: 0.936
C[C@H](CO)N1C[C@H](C)[C@H](CN(C)S(=O)(=O)c2ccc(Cl)cc2)Oc2c(NC(=O)c3cnccn3)cccc2C1=O	inactive: 0.981
COc1ccc(NC(=O)N(C)C[C@H]2OCCCC[C@@H](C)Oc3ccc(NC(=O)c4ccccc4)cc3C(=O)N([C@H](C)CO)C[C@H]2C)cc1	inactive: 0.992
N=C(N=C(N)N)N1CCOCC1	inactive: 0.952
COc1ccccc1-c1cnc2c(c1)C(=O)N([C@@H](C)CO)C[C@H](C)[C@H](CN(C)C(=O)c1ccncc1)O2	inactive: 1
CN1C(=O)c2cc(NC(=O)C3CCOCC3)ccc2OC[C@@H]2O[C@@H](CC(=O)NCCc3ccncc3)CC[C@H]21	inactive: 0.994
CN1CC(=O)Nc2ccc([N+](=O)[O-])cc2C1=O	inactive: 0.993
C[C@@H]1CN([C@H](C)CO)C(=O)c2cc(NC(=O)Nc3cccc4ccccc34)ccc2O[C@@H](C)CCCCO[C@H]1CN(C)Cc1ccc(C(F)(F)F)cc1	inactive: 1.06
Cc1ccc(S(=O)(=O)N(C)C[C@@H]2Oc3ccc(NS(=O)(=O)c4cn(C)cn4)cc3C(=O)N([C@@H](C)CO)C[C@H]2C)cc1	inactive: 0.995
C[C@H]1CCCCO[C@H](CN(C)S(=O)(=O)c2ccc(Cl)cc2)[C@@H](C)CN([C@@H](C)CO)C(=O)c2cc(NC(=O)CCC(F)(F)F)ccc2O1	inactive: 1.04
C[C@H]1CN([C@@H](C)CO)C(=O)c2cc(NS(=O)(=O)c3cn(C)cn3)ccc2O[C@@H]1CN(C)Cc1ccccc1	inactive: 0.971
C[C@H](O)[C@H](O)[C@@H](O)[C@@H](O)/C=N/NC(=O)c1cccc(C(=O)NO)c1	inactive: 0.981
C[C@H]1CN([C@@H](C)CO)C(=O)Cc2cc(NC(=O)Cn3cnnn3)ccc2O[C@H]1CN(C)C(=O)Nc1ccc(F)cc1	inactive: 1.03
O=C(C[C@@H]1C[C@H]2c3cc(NS(=O)(=O)c4ccc(F)cc4)ccc3O[C@H]2[C@H](CO)O1)N1CCCCC1	inactive: 0.988
C[C@H]1CN([C@@H](C)CO)C(=O)c2cc(NC(=O)Nc3cccc4ccccc34)ccc2O[C@@H]1CN(C)S(=O)(=O)c1ccccc1	inactive: 1.03
